In PubChem BioAssay AID1645887 (National Center for Advancing Translational Sciences (NCATS), 2021) one finds activation data, which are given here for 85 compounds.

Where “and” joins values, the source holds several entries; their conditions need not be identical. Equal entries are not always repeated. The campaign covered roughly 16,000 compounds. About 40 (0.2%) were called active. Not shown: some 1% with an inconclusive outcome. The call rests on the fitted dose curve; in most records, active means well fitted activation curve with a large enough effect; inconclusive means small, poorly fitted or top-dose-only effect, or another doubt; inactive means no such curve, though single readings can be large or run the other way. This is one part of the list.
On the % scale 0 is the no-effect control and ±100 the full control effect.

Chain of UniProt Q8WZA2 (Q8WZA2 whole entry, looked up): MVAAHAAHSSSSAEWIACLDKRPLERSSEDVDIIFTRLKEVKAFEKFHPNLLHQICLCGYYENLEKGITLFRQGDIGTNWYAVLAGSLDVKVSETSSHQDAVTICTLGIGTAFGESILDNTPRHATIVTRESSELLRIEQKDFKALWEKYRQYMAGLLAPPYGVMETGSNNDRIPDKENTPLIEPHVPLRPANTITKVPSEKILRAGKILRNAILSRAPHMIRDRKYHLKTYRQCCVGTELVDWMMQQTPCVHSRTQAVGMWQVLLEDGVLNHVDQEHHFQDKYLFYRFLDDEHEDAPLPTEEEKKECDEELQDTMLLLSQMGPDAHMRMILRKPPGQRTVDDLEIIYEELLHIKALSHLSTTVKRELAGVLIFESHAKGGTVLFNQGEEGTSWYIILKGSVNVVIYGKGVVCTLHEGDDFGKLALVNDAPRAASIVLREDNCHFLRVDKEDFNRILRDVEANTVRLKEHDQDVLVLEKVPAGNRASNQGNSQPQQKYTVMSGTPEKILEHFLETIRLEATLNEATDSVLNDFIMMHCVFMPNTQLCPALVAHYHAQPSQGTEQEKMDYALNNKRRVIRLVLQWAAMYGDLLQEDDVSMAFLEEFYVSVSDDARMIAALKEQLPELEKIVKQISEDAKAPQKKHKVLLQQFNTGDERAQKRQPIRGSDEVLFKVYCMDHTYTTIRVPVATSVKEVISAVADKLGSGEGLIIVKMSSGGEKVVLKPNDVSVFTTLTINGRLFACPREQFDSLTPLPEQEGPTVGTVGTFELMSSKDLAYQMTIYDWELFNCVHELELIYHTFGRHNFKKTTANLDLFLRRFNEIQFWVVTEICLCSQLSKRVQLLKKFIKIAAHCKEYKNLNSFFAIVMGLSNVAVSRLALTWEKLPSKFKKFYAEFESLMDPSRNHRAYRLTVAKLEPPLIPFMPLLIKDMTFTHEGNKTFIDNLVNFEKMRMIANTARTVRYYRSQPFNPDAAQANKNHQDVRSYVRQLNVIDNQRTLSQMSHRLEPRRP

This assay has as its target Rap guanine nucleotide exchange factor 4 (Homo sapiens) (UniProt Q8WZA2). Nature of the assay: Validation qHTS for agonist of cAMP-regulated guanine nucleotide exchange factor 4 (EPAC2).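 Further: exchange makes BODIPY-GDP fluorescence drop when released from Rap1B; series mostly up to about 150 µM.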 The settings on record: EPAC2 Rap1B BODIPY-GDP exchange, fluorescence; activation: active compounds read high. In outline:
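Fluorescent exchange assay: 100 nM EPAC2 with 250 nM RAP1B-BODIPY-GDP and 50 uM GDP; compound added, 5 min at room temperature, then read (ex 480/em 540 nm) every 5 min for 30 min. Normalized to 6.5 mM cAMP agonist control.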
Take `O=C(Cn1nc2ccccc2n1)N1CCOc2ccc(CN3CCc4sccc4C3)cc2C1`: the activation was inactive: -1.56%.

Take `COC(=O)[C@@H]1CC2=CC(=O)CC[C@]2(C)[C@@]23O[C@@H]2C[C@@]2(C)[C@@H](CC[C@@]24CCC(=O)O4)[C@H]13`: the activation was inactive: 7.31%.

For `CC(C)Cc1nc2cc(NS(=O)(=O)N(C)C)cc(C(=O)N3CCSCC3)c2n1C`, the activation is inactive: -7.73%.

Consider `COc1cccc(Nc2ncc3ncc(=O)n(C[C@H]4CCCO4)c3n2)c1`, for which the activation is inactive: -4.49%.

In the case of `O=[N+]([O-])c1ccc2cn[nH]c2c1`, the activation was inactive: -0.713%.

With `COc1cc(=O)n2c(c1C(=O)NCc1ccco1)CCN(Cc1cccc(C)n1)CC2`, the activation is inactive: 0.554%.

With `O=C(O)Cc1ccc(CCNS(=O)(=O)c2ccc(Cl)cc2)cc1`, the activation is inactive: -4.72%.

For `O=C(O)c1ccccc1-c1oc2cc(O)ccc2c(=O)c1Oc1ccccc1`, the activation was inactive: -6.47%.

As to `COc1ccc([C@@H]2[C@@H](O)[C@H](O)[C@@H](C)N2C)cc1OC`, the activation is inactive: -21.9%.

With `c1cncc(-c2cncnc2NCc2cccs2)c1`, the activation is inactive: -6.37%.

Take `N[C@@H](C(=O)O)c1ccc(C(=O)O)cc1`: the activation was inactive: -29.8% and inactive: -15.6%.

Turning to `OC(CN1CCOCC1)c1ccccc1` (stereo not given), the activation was inactive: -3.67%.

As to `CO[C@H](C(=O)[C@@H](O)[C@@H](C)O)C1Cc2cc3cc(O[C@H]4C[C@@H](O[C@H]5C[C@@H](O)[C@H](O)[C@@H](C)O5)[C@@H](O)[C@@H](C)O4)c(C)c(O)c3c(O)c2C(=O)[C@H]1O[C@H]1C[C@@H](O[C@H]2C[C@@H](O[C@H]3C[C@](C)(O)[C@H](O)[C@@H](C)O3)[C@H](O)[C@@H](C)O2)[C@H](O)[C@@H](C)O1` (stereo not given in full), the activation is inactive: 14% and inactive: 18.8%.

As to `CC(=O)OCCC(C)CCC=C(C)C` (stereo not given), the activation was inactive: -19.9%.

On to `COc1ccc(F)c(CN2CCC3(CCC(CNC(=O)c4cc(C)nn4C)O3)CC2)c1` (stereo not given), for which the activation was inactive: -15.5%.

For the compound `N[C@H](Cc1c[nH]c2ccccc12)C(=O)O`, the activation was inactive: -18.1%.

On to `COC(=O)c1cc(OC)c(=O)c2c(OC)c(OC)ccc2c1`, for which the activation is inactive: -25.7%.

Take `CN(C)c1ccc(-c2cc(-n3ccnc3)ncn2)cc1`: the activation is inactive: -11.2%.

For the compound `COc1cccc(-c2nc(N3CCN(C)CC3)c3ccccc3n2)c1`, the activation was inactive: -6.1%.

Consider `O=S1(=O)CCOCCCN1Cc1ccc(Cl)cc1`, for which the activation was inactive: -25.8%.

Regarding `Cc1cc(NC(=O)Nc2ccc3c(ccn3C)c2)sn1`, the activation is inactive: -25.5% and inactive: -3.8%.

`N#CCCn1c(=O)cnc2cnc(N3CCNCC3)nc21`: the activation was inactive: -4.04%.

Regarding `COC(=O)C1NC(=O)N2C(C(=O)OC)C(C)(C)S[C@H]12` (stereo not given in full), the activation was inactive: -28.7%.

With `Cc1cnc(CNc2cc(-c3ccc4c(c3)OCO4)ncn2)cn1`, the activation was inactive: -11.7%.

`COCCn1c(=O)cnc2cnc(N(C)C)nc21`: the activation was inactive: -3.55%.

As for `COc1ccc2c(c1)OC(C)CN(CCNC(=O)C1CCOC1)C2` (stereo not given), the activation is inactive: -17.3%.

On to `O=C(CCCN1CCN(c2ccccn2)CC1)c1ccc(F)cc1`, for which the activation was inactive: -10% and inactive: 8.93%.

On to `CC(=O)N1CCC[C@H]1C(=O)NCC1Cc2cc(Cl)cc(-c3ccc4[nH]ccc4c3)c2O1` (stereo not given in full), for which the activation was inactive: -13.1%.

For `OC(C1=C/C(=C\c2ccncc2)c2ccccc21)c1ccncc1` (stereo not given), the activation is inactive: -21.2%.

Take `O=C(NCCc1ccccn1)C1CC12CCN(C(=O)c1cccc(C(F)(F)F)c1)CC2` (stereo not given): the activation was inactive: -3.99%.

`C[C@@H]1CNCCN1S(=O)(=O)c1cccc2cnccc12`: the activation was inactive: -23%.

With `CC(C)CCCC(C)C1CCC2C3CC(=O)[C@H]4CC(O)CC[C@]4(C)C3CC[C@@]12C` (stereo not given in full), the activation was inactive: -13%.

For the compound `COCC(=O)Nc1cc(C(=O)N2CC3CCC2C3)c2c(c1)nc(-c1ccncc1)n2C` (stereo not given), the activation was inactive: -7.29%.

Consider `C[C@@H](CN=[N+]=[N-])CN1CC[C@H](O)CCC1=O`, for which the activation is inactive: -8.93%.

On to `O=C(C[n+]1cc(Br)cc2ccccc21)c1ccc(F)cc1`, for which the activation was inactive: -51.8%.

On to `CCC(C)[C@H]1COCCS(=O)(=O)N1Cc1ccc(Cl)cc1Cl` (stereo not given in full), for which the activation is inactive: -7.64%.

`Cc1c(C(=O)NCc2ccccc2Cl)sc2ncnc(NCC3CCCO3)c12` (stereo not given): the activation is inactive: -8.89%.

Consider `COc1ccccc1C1CN(CCNC(=O)c2cscn2)Cc2ccccc2O1` (stereo not given), for which the activation is inactive: -13.1%.

For `C#C[C@]1(O)CCC2C3CCC4=C(CCC(=O)C4)C3CC[C@@]21C` (stereo not given in full), the activation is inactive: 19%.

On to `CS(=O)(=O)N1CCC2(CC1)CN(C(c1ccccc1)c1ccccc1)C2`, for which the activation is inactive: -6.97%.

As for `COc1ccc(NC(=O)N2CCCC3(CCNCC3)C2)cc1`, the activation is inactive: -4.04%.

Regarding `Cc1cnc(CNc2nc(-c3c(C)noc3C)nc3ccccc23)cn1`, the activation is inactive: -15.6%.

For `Cc1cccc2c(C(O)c3cn(C)c4ccccc34)c[nH]c12` (stereo not given), the activation is inactive: -24.9%.

In the case of `Cc1cc(CNC(=O)c2cnn(-c3ncc4c(n3)-c3ccccc3CC4)c2C2CC2)on1`, the activation is inactive: -4.61%.

In the case of `COc1ccc(-c2c(O)c3c(OC)c4c(cc3oc2=O)OC(C)(C)CC4)cc1`, the activation was inactive: 5.29%.

On to `CCCCC/C=C/C=C1/C(=O)C=C[C@@H]1C/C=C\CCCC(=O)O`, for which the activation was inactive: -4.08%.

For `Cc1cnc(C)c(-c2cccc3c2OC(CNC(=O)C2(c4ccc(Cl)cc4)CC2)C3)n1` (stereo not given), the activation is inactive: -19.5%.

Take `CCN1CCN(C(=O)c2sc3ncnc(NCC4CCCO4)c3c2C)CC1` (stereo not given): the activation is inactive: -6.49%.

Regarding `C[C@@H](CN1CCC(Cc2ccccc2)CC1)[C@@H](O)c1ccc(O)cc1`, the activation is inactive: -17.8% and inactive: -20.7%.

As for `CCCCC[C@H](O)CC[C@H]1[C@H](O)CC(=O)[C@@H]1CCCCCCC(=O)O`, the activation was inactive: -3.44%.

As to `CC1CC(OC(=O)c2ccccc2O)CC(C)(C)C1` (stereo not given), the activation is inactive: -10.1% and inactive: -4.57%.

Consider `COC(=O)[C@H](NC(=O)c1cc(-c2ccccc2)nc2ccccc12)c1ccccc1`, for which the activation is inactive: -14.5% and inactive: -35.2%.

For the compound `CC(=O)OC1CC[C@@]2(C)C3CC(=O)[C@]4(C)C(C(C)=O)=CCC4C3CC[C@H]2C1` (stereo not given in full), the activation is inactive: -7%.

Regarding `CN(C)C(N)=NCCC[C@H](N)C(=O)O`, the activation was inactive: -30.1%.

Take `COC(=O)C1=C(C#N)NC(C)=C(C(=O)OC(C)C)C1c1cccc([N+](=O)[O-])c1` (stereo not given): the activation is inactive: -14.1%.

`N#Cc1cc2nc(O)c(O)nc2cc1[N+](=O)[O-]`: the activation was inactive: -4.87% and inactive: -26.5%.

In the case of `Nc1ccc(S(=O)(=O)NCc2ccccc2)cc1`, the activation is inactive: -17.6%.

Turning to `NC(=O)c1ccccc1-c1nc(-n2ccnc2)c2ccccc2n1`, the activation is inactive: -6.32%.

Regarding `COCC(=O)Nc1cc(C(=O)N2CCCCC2c2nccs2)c2c(c1)nc(-c1ccncc1)n2C` (stereo not given), the activation is inactive: -6.37%.

With `CC1(C(=O)O)NCCc2cc(O)c(O)cc21` (stereo not given), the activation was inactive: -3.09%.

Regarding `Cl/C(=C\n1cncn1)c1ccc(Cl)cc1Cl`, the activation is inactive: -16.3%.

With `CCC(=O)NC1Cc2ccccc2C(c2ccccc2)C1` (stereo not given), the activation is inactive: 1.82%.

As for `O=C1C=CC2=C3c4cc(O)c(O)cc4C[C@]3(O)COC2=C1`, the activation is inactive: -18.1%.

Consider `COc1ccccc1C(=O)N(Cc1cc2cccc(C)c2nc1N1CCC(O)CC1)C1CC1`, for which the activation was inactive: -12.8%.

For the compound `NC(N)=NCCC[C@@H](N)C(=O)O`, the activation was inactive: -0.715% and inactive: 3.02%.

`COc1cccc(-c2nccc(NCc3cnc(C)cn3)n2)c1`: the activation is inactive: 0.554%.

For `CCNc1ncc2nc(-c3cc(F)cc(F)c3)c(=O)n(-c3ccccc3)c2n1`, the activation was inactive: 26.9%.

With `Cc1cnc(-n2ncc(C(=O)NCc3ccccn3)c2C2CC2)nc1-c1cccs1`, the activation is inactive: -5.87%.

Consider `COC1C(O)C(CO)OC1n1cnc2c(=O)[nH]c(N)nc21` (stereo not given), for which the activation is inactive: -12.6%.

For `O=C1C[C@H]2C=CCc3cccc(c32)CN1Cc1ccccc1`, the activation was inactive: -25%.

For the compound `CNc1ncnc2ccc(-c3cccc(NS(C)(=O)=O)c3)cc12`, the activation is inactive: -3.37%.

Consider `COc1ccc(S(=O)(=O)NCc2nc(N3CCCC3)c3cccc(C)c3n2)cc1OC`, for which the activation is inactive: -13.4%.

As to `O=C(OC[C@H]1O[C@](O)(COC(=O)c2cccnc2)[C@@H](OC(=O)c2cccnc2)[C@@H]1OC(=O)c1cccnc1)c1cccnc1`, the activation is inactive: -6.8%.

With `CC[C@@]1(c2ccccc2)NC(=O)N(C)C1=O`, the activation is inactive: -3.56%.

For `N[C@@H](Cc1cc(I)c(Oc2ccc(O)c(I)c2)c(I)c1)C(=O)O`, the activation was inactive: -4.69% and inactive: -0.0348%.

For `Cc1cc(=O)oc2cc(O[C@@H]3O[C@H](C(=O)O)[C@@H](O)[C@H](O)[C@H]3O)ccc12`, the activation is inactive: 1.93%.

For `COc1cc(OC)c2nc(-c3cc4c(c(OC)c3)OCCN(C(=O)CC3NC(=O)c5ccccc53)C4)cc(C)c2c1` (stereo not given), the activation was inactive: 7.32%.

For the compound `O=C(c1ccco1)N1CCC2(CCN(Cc3ccccc3)CC2)CC1`, the activation was inactive: -14.1%.

For `c1cncc(CNc2ncncc2-c2cccnc2)c1`, the activation is inactive: 3.38%.

For the compound `Cc1ccc2oc(-c3ccccc3)cc(=O)c2c1`, the activation was inactive: 0.141%.

Regarding `O=C(c1cnccn1)N1CCC2(CCCN(c3ccccn3)C2)CC1`, the activation is inactive: 0.0576%.

With `CN1CCC(=C2c3ccccc3Sc3ccccc32)CC1`, the activation was inactive: -13.4%.

On to `CC(C)c1c(C(=O)N2CCCCC2c2cccnc2)cnn1-c1nccc(-c2cccs2)n1` (stereo not given), for which the activation is inactive: -15.4%.

`Nc1c2ccccc2nc2ccccc12`: the activation is inactive: -16.6% and inactive: 2.24%.

For the compound `COc1cccc(Nc2ncc3nc(-c4ccccc4)c(=O)n(C[C@H]4CCCO4)c3n2)c1`, the activation is inactive: 13.8%.
